The text below walks through data of article PMC9911399, “Two distinct binding modes provide the RNA-binding protein RbFox with extraordinary sequence specificity”.

Residue numbers refer to the chain shown, from its start. The list shows a part of the results.

To fix the notation:
B1: AACGCGU (DNA:RNA)
RNA: GGGAGACCGGAAUUCAGAUUGUCCAACGCGUUUAAAUCCCGUCGUAGCCACCA
DNA 1: CAATCTGAATTCCGGTCTCCC
DNA 2: TGGTGGCTACGACGGGATT
B2: GACCAAC (DNA:RNA)
RNA: B1 RNA with A25G, G28C, C29A, G30A, U31C
DNA 1: CAATCTGAATTCCGGTCTCCC
DNA 2: TGGTGGCTACGACGGGATT
B3: GCGGCCA (DNA:RNA)
RNA: B1 RNA with A25G, A26C, C27G, G30C, U31A
DNA 1: CAATCTGAATTCCGGTCTCCC
DNA 2: TGGTGGCTACGACGGGATT
B4: UGGGGAU (DNA:RNA)
RNA: B1 RNA with A25U, A26G, C27G, C29G, G30A
DNA 1: CAATCTGAATTCCGGTCTCCC
DNA 2: TGGTGGCTACGACGGGATT
B5: ACUCCAA (DNA:RNA)
RNA: B1 RNA with A26C, C27U, G28C, G30A, U31A
DNA 1: CAATCTGAATTCCGGTCTCCC
DNA 2: TGGTGGCTACGACGGGATT
B6: CCUCAUA (DNA:RNA)
RNA: GGGAGACCGGAAUUCAGAUUGUCCCCUCAUAUUAAAUCCCGUCGUAGCCACCA
DNA 1: CAATCTGAATTCCGGTCTCCC
DNA 2: TGGTGGCTACGACGGGATT
B7: CCCUCGG (DNA:RNA)
RNA: B1 RNA with A25C, A26C, G28U, U31G
DNA 1: CAATCTGAATTCCGGTCTCCC
DNA 2: TGGTGGCTACGACGGGATT
B8: UGCUGGU (DNA:RNA)
RNA: B1 RNA with A25U, A26G, G28U, C29G
DNA 1: CAATCTGAATTCCGGTCTCCC
DNA 2: TGGTGGCTACGACGGGATT
B9: UUACAUA (DNA:RNA)
RNA: B6 RNA with C25U, C26U, U27A
DNA 1: CAATCTGAATTCCGGTCTCCC
DNA 2: TGGTGGCTACGACGGGATT
B10: GCAACGU (DNA:RNA)
RNA: B1 RNA with A25G, A26C, C27A, G28A
DNA 1: CAATCTGAATTCCGGTCTCCC
DNA 2: TGGTGGCTACGACGGGATT
B11: CAGCGCA (DNA:RNA)
RNA: B6 RNA with C26A, U27G, A29G, U30C
DNA 1: CAATCTGAATTCCGGTCTCCC
DNA 2: TGGTGGCTACGACGGGATT
B12: CUCUCUA (DNA:RNA)
RNA: B6 RNA with C26U, U27C, C28U, A29C
DNA 1: CAATCTGAATTCCGGTCTCCC
DNA 2: TGGTGGCTACGACGGGATT
B13: AAUAUGA (DNA:RNA)
RNA: B1 RNA with C27U, G28A, C29U, U31A
DNA 1: CAATCTGAATTCCGGTCTCCC
DNA 2: TGGTGGCTACGACGGGATT
B14: AAGAAGU (DNA:RNA)
RNA: B1 RNA with C27G, G28A, C29A
DNA 1: CAATCTGAATTCCGGTCTCCC
DNA 2: TGGTGGCTACGACGGGATT
B15: UAGGAUC (DNA:RNA)
RNA: B1 RNA with A25U, C27G, C29A, G30U, U31C
DNA 1: CAATCTGAATTCCGGTCTCCC
DNA 2: TGGTGGCTACGACGGGATT
B16: GAGCAUA (DNA:RNA)
RNA: B6 RNA with C25G, C26A, U27G
DNA 1: CAATCTGAATTCCGGTCTCCC
DNA 2: TGGTGGCTACGACGGGATT
B17: GGCACUU (DNA:RNA)
RNA: B1 RNA with A25G, A26G, G28A, G30U
DNA 1: CAATCTGAATTCCGGTCTCCC
DNA 2: TGGTGGCTACGACGGGATT
B18: GCACUCC (DNA:RNA)
RNA: B6 RNA with C25G, U27A, A29U, U30C, A31C
DNA 1: CAATCTGAATTCCGGTCTCCC
DNA 2: TGGTGGCTACGACGGGATT
B19: AGGACAC (DNA:RNA)
RNA: B1 RNA with A26G, C27G, G28A, G30A, U31C
DNA 1: CAATCTGAATTCCGGTCTCCC
DNA 2: TGGTGGCTACGACGGGATT
B20: AUCGUUU (DNA:RNA)
RNA: B1 RNA with A26U, C29U, G30U
DNA 1: CAATCTGAATTCCGGTCTCCC
DNA 2: TGGTGGCTACGACGGGATT
B21: GAUAAGG (DNA:RNA)
RNA: B1 RNA with A25G, C27U, G28A, C29A, U31G
DNA 1: CAATCTGAATTCCGGTCTCCC
DNA 2: TGGTGGCTACGACGGGATT
B22: AGUCCAG (DNA:RNA)
RNA: B1 RNA with A26G, C27U, G28C, G30A, U31G
DNA 1: CAATCTGAATTCCGGTCTCCC
DNA 2: TGGTGGCTACGACGGGATT
B23: GCUACUC (DNA:RNA)
RNA: B6 RNA with C25G, C28A, A29C, A31C
DNA 1: CAATCTGAATTCCGGTCTCCC
DNA 2: TGGTGGCTACGACGGGATT
B24: GGUGUCU (DNA:RNA)
RNA: B1 RNA with A25G, A26G, C27U, C29U, G30C
DNA 1: CAATCTGAATTCCGGTCTCCC
DNA 2: TGGTGGCTACGACGGGATT
B25: GCGGCGA (DNA:RNA)
RNA: B1 RNA with A25G, A26C, C27G, U31A
DNA 1: CAATCTGAATTCCGGTCTCCC
DNA 2: TGGTGGCTACGACGGGATT
B26: GGUCAGC (DNA:RNA)
RNA: B6 RNA with C25G, C26G, U30G, A31C
DNA 1: CAATCTGAATTCCGGTCTCCC
DNA 2: TGGTGGCTACGACGGGATT
B27: ACAGGUG (DNA:RNA)
RNA: B1 RNA with A26C, C27A, C29G, G30U, U31G
DNA 1: CAATCTGAATTCCGGTCTCCC
DNA 2: TGGTGGCTACGACGGGATT
B28: UAGGCCA (DNA:RNA)
RNA: B1 RNA with A25U, C27G, G30C, U31A
DNA 1: CAATCTGAATTCCGGTCTCCC
DNA 2: TGGTGGCTACGACGGGATT
B29: GGCCGCU (DNA:RNA)
RNA: B1 RNA with A25G, A26G, G28C, C29G, G30C
DNA 1: CAATCTGAATTCCGGTCTCCC
DNA 2: TGGTGGCTACGACGGGATT
B30: GCGGGGG (DNA:RNA)
RNA: B1 RNA with A25G, A26C, C27G, C29G, U31G
DNA 1: CAATCTGAATTCCGGTCTCCC
DNA 2: TGGTGGCTACGACGGGATT
B31: AUAAGGU (DNA:RNA)
RNA: B1 RNA with A26U, C27A, G28A, C29G
DNA 1: CAATCTGAATTCCGGTCTCCC
DNA 2: TGGTGGCTACGACGGGATT

In the assay the target is T1, RBFOX1 RRM RbFoxmut (Fox-RRM*) (Homo sapiens, UniProt Q9NWB1 109-208, R118D;E147R;N151S;E152T).
T1 sequence: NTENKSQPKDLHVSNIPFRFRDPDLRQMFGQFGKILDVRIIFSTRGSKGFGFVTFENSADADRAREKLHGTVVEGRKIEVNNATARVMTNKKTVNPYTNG
Description: EMSA; HiTS-Eq, 1 nM pool, 10 min; buffer printed only for the single-RNA assays: 10 mM Tris pH 7.5, 150 mM NaCl, 3.4 mM EDTA, 0.001% NP-40, 30 C. The settings on record: tags: His6 N-terminal (pET28a); label: 5' 32P. In outline: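 Purified RbFox RRM (wild type or mutant) was equilibrated for 10 min in 50 µL with 1 nM of a 5′-radiolabelled pool of RNA with 7 randomized nucleotides, its flanks annealed to DNA oligonucleotides, across increasing protein concentrations. Free RNA was separated by 8% native PAGE, excised, reverse-transcribed, PCR-barcoded and sequenced on an Illumina HiSeq 2500. Relative association constants came from read-count changes of each variant against the control reaction, normalised to the cognate motif.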
On the technique in general: Mobility shift assays separate free from complexed probe on a gel.
B1: the binding signal is 0.097 KA relative to UGCAUGU.

As for B2, the binding signal is 0.0685 KA relative to UGCAUGU. Regarding B3, the binding signal is 0.0962 KA relative to UGCAUGU.

For B4, the binding signal is 0.135 KA relative to UGCAUGU.

Turning to B5, the binding signal is 0.0915 KA relative to UGCAUGU.

As to B6, the binding signal was 0.116 KA relative to UGCAUGU. As to B7, the binding signal is 0.0672 KA relative to UGCAUGU. In the case of B8, the binding signal is 0.133 KA relative to UGCAUGU.

For B9, the binding signal is 0.0834 KA relative to UGCAUGU. Regarding B10, the binding signal is 0.094 KA relative to UGCAUGU. The value for B11 was 0.143 KA relative to UGCAUGU; that for B12 was 0.111 KA relative to UGCAUGU; that for B13 was 0.0642 KA relative to UGCAUGU. The value for B14 was 0.137 KA relative to UGCAUGU; that for B15 was 0.0992 KA relative to UGCAUGU; that for B16 was 0.114 KA relative to UGCAUGU. As for B17, the binding signal is 0.0565 KA relative to UGCAUGU. As for B18, the binding signal is 0.0438 KA relative to UGCAUGU.

As to B19, the binding signal is 0.0652 KA relative to UGCAUGU.

For B20, the binding signal is 0.112 KA relative to UGCAUGU. Take B21: the binding signal is 0.0515 KA relative to UGCAUGU. To B22 belongs 0.113 KA relative to UGCAUGU. As to B23, the binding signal was 0.0593 KA relative to UGCAUGU. For B24, the binding signal was 0.122 KA relative to UGCAUGU.

On to B25, for which the binding signal was 0.101 KA relative to UGCAUGU. Take B26: the binding signal was 0.0924 KA relative to UGCAUGU. With B27, the binding signal was 0.134 KA relative to UGCAUGU. The value for B28 was 0.0765 KA relative to UGCAUGU; that for B29 was 0.0597 KA relative to UGCAUGU. On to B30, for which the binding signal was 0.102 KA relative to UGCAUGU. The value for B31 was 0.0832 KA relative to UGCAUGU.
